Values quoted from earlier work, collected in article PMC10343355, “Finding the Right Solvent: A Novel Screening Protocol for Identifying Environmentally Friendly and Cost-Effective Options for Benzenesulfonamide” (Molecules, 2023).
Read-outs that look alike come from different tables or passages of the source. Further values from the same series stand in other lists.

Design: method as in Li et al.
Details: ref Li et al., cited from earlier work

For `NS(=O)(=O)c1ccccc1` [BSA, Benzenesulfonamide], the “log(x1)exp” value (Acetone, 0.00 °C) is listed as -0.93, the “log(x1)exp” value (Acetone, 6.00 °C) is listed as -0.91 and the “log(x1)exp” value (Acetone, 10.30 °C) is listed as -0.89. The “log(x1)exp” value (Acetone, 15.80 °C) was -0.86, the “log(x1)exp” value (Acetone, 20.10 °C) was -0.84 and the “log(x1)exp” value (Acetone, 25.70 °C) was -0.81. For the same compound, the “log(x1)exp” value (Acetone, 30.00 °C) was -0.78, the “log(x1)exp” value (Acetone, 35.00 °C) was -0.75 and the “log(x1)exp” value (Acetone, 40.00 °C) was -0.73. For the same compound, the “log(x1)exp” value (Acetone, 44.50 °C) was -0.70, the “log(x1)exp” value (Acetone, 50.00 °C) was -0.66 and the “log(x1)exp” value (Cyclohexanone, 0.00 °C) was -0.94. For the same compound, the “log(x1)exp” value (Cyclohexanone, 6.00 °C) was -0.92, the “log(x1)exp” value (Cyclohexanone, 10.70 °C) was -0.90 and the “log(x1)exp” value (Cyclohexanone, 16.00 °C) was -0.87. For the same compound, the “log(x1)exp” value (Cyclohexanone, 20.60 °C) was -0.85, the “log(x1)exp” value (Cyclohexanone, 26.00 °C) was -0.82 and the “log(x1)exp” value (Cyclohexanone, 30.60 °C) was -0.79. For the same compound, the “log(x1)exp” value (Cyclohexanone, 36.00 °C) was -0.77, the “log(x1)exp” value (Cyclohexanone, 40.20 °C) was -0.74 and the “log(x1)exp” value (Cyclohexanone, 46.00 °C) was -0.71. For the same compound, the “log(x1)exp” value (Cyclohexanone, 51.30 °C) was -0.68, the “log(x1)exp” value (Cyclopentanone, 46.00 °C) was -0.64 and the “log(x1)exp” value (Cyclopentanone, 51.30 °C) was -0.61. For the same compound, the “log(x1)exp” value (Ethanol, 0.00 °C) was -1.80, the “log(x1)exp” value (Ethanol, 6.00 °C) was -1.74 and the “log(x1)exp” value (Ethanol, 10.30 °C) was -1.70. The “log(x1)exp” value (Ethanol, 15.80 °C) was -1.64, the “log(x1)exp” value (Ethanol, 20.10 °C) was -1.58 and the “log(x1)exp” value (Ethanol, 25.70 °C) was -1.51. For the same compound, the “log(x1)exp” value (Ethanol, 30.00 °C) was -1.45, the “log(x1)exp” value (Ethanol, 35.00 °C) was -1.39 and the “log(x1)exp” value (Ethanol, 40.00 °C) was -1.32. The “log(x1)exp” value (Ethanol, 44.50 °C) was -1.26, the “log(x1)exp” value (Ethanol, 50.00 °C) was -1.20 and the “log(x1)exp” value (Isopropanol, 0.00 °C) was -2.12. The “log(x1)exp” value (Isopropanol, 6.00 °C) was -2.08, the “log(x1)exp” value (Isopropanol, 10.70 °C) was -2.02 and the “log(x1)exp” value (Isopropanol, 16.00 °C) was -1.92. The “log(x1)exp” value (Isopropanol, 20.60 °C) was -1.85, the “log(x1)exp” value (Isopropanol, 26.00 °C) was -1.76 and the “log(x1)exp” value (Isopropanol, 30.60 °C) was -1.67. For the same compound, the “log(x1)exp” value (Isopropanol, 36.00 °C) was -1.58, the “log(x1)exp” value (Isopropanol, 40.20 °C) was -1.52 and the “log(x1)exp” value (Isopropanol, 46.00 °C) was -1.43. The “log(x1)exp” value (Isopropanol, 51.30 °C) was -1.35, the “log(x1)exp” value (Methyl Acetate, 0.00 °C) was -1.37 and the “log(x1)exp” value (Methyl Acetate, 6.00 °C) was -1.33. For the same compound, the “log(x1)exp” value (Methyl Acetate, 10.30 °C) was -1.30, the “log(x1)exp” value (Methyl Acetate, 15.80 °C) was -1.25 and the “log(x1)exp” value (Methyl Acetate, 20.10 °C) was -1.22. For the same compound, the “log(x1)exp” value (Methyl Acetate, 25.70 °C) was -1.17, the “log(x1)exp” value (Methyl Acetate, 30.00 °C) was -1.13 and the “log(x1)exp” value (Methyl Acetate, 35.00 °C) was -1.08. For the same compound, the “log(x1)exp” value (Methyl Acetate, 40.00 °C) was -1.04, the “log(x1)exp” value (Methyl Acetate, 44.50 °C) was -0.99 and the “log(x1)exp” value (Methyl Acetate, 50.00 °C) was -0.95. The “log(x1)exp” value (n-Butanol, 0.00 °C) was -2.24, the “log(x1)exp” value (n-Butanol, 6.00 °C) was -2.17 and the “log(x1)exp” value (n-Butanol, 10.70 °C) was -2.10. The “log(x1)exp” value (n-Butanol, 16.00 °C) was -2.02, the “log(x1)exp” value (n-Butanol, 20.60 °C) was -1.96 and the “log(x1)exp” value (n-Butanol, 26.00 °C) was -1.87. The “log(x1)exp” value (n-Butanol, 30.60 °C) was -1.79, the “log(x1)exp” value (n-Butanol, 36.00 °C) was -1.71 and the “log(x1)exp” value (n-Butanol, 40.20 °C) was -1.65. The “log(x1)exp” value (n-Pentanol, 0.00 °C) was -2.32, the “log(x1)exp” value (n-Pentanol, 6.00 °C) was -2.27 and the “log(x1)exp” value (n-Pentanol, 10.70 °C) was -2.21. The “log(x1)exp” value (n-Pentanol, 16.00 °C) was -2.14, the “log(x1)exp” value (n-Pentanol, 20.60 °C) was -2.05 and the “log(x1)exp” value (n-Pentanol, 26.00 °C) was -1.95. The “log(x1)exp” value (n-Pentanol, 30.60 °C) was -1.88.
